Experimental data taken from patent US20230093512A1 (NANJING GENSCRIPT BIOTECH, published 2023).
Values belong to the binder of their own block, whether it stands above or below them.

Target: human PD-L1 (PD-L1 aAPC/CHO-K1 cells) (human, UniProt Q9NZQ7)
Assay: cell-based or functional assay

UniProt Q9NZQ7, sequence (Q9NZQ7 19-290): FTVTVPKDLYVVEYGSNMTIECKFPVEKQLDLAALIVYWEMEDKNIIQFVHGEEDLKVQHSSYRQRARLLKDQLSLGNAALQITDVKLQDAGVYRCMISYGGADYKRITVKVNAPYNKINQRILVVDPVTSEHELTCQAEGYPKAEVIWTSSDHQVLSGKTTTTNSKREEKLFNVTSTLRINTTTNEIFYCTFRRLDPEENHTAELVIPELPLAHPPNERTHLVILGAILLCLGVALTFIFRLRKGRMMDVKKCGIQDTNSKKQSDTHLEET

B1: ADD19-15-L03-E (other)
heavy chain H1: EVQLVQSGAEVKKPGASVKVSCKASGYIFTGYGITWVRQAPGQGLEWMGEIFPRRVQTYYSEKFKGRVTMTTDTSTSTAYMELRSLRSDDTAVYYCARDYDPYFALDYWGQGTTVTVSSASTKGPSVFPLAPSSKSTSGGTAALGCLVKDYFPEPVTVSWNSGALTSGVHTFPAVLQSSGLYSLSSVVTVPSSSLGTQTYICNVNHKPSNTKVDKRV[gap - human IgG1 Fc]
light chain L3 (L0 fused at its C-terminus to TBRII-ECD by the E-linker): DIQMTQSPSSLSASVGDRVTITCRASQDVSTAVDWYQQKPGKAPKLLIYSASYRYTGVPDRFSGSGSGTDFTFTISSLQPEDIATYYCQQHYSIPFTFGQGTKLEIKRTVAAPSVFIFPPSDEQLKSGTASVVCLLNNFYPREAKVQWKVDNALQSGNSQESVTEQDSKDSTYSLSSTLTLSKADYEKHKVYACEVTHQGLSSPVTKSFNRGECEPKSSDKTHTSPPSPIPPHVQKSVNNDMIVTDNNGAVKFPQLCKFCDVRFSTCDNQKSCMSNCSITSICEKPQEVCVAVWRKNDENITLETVCHDPKLPYHDFILEDAASPKCIMKEKKKPGETFFMCSCSSDECNDNIIFSEEYNTSNPD
notes: anti-PD-L1 mAb / TGFβ receptor II ectodomain fusion protein, ectodomain on the light chain
EC50, luminescence (RLU) of PD-1 effector cells co-cultured with PD-L1 aAPC/CHO-K1 cells, PD-1/PD-L1 blockade bioassay: 0.692 nM

B4: ADD19-15-H01-E (other)
heavy chain H6 (H1 fused at its C-terminus to TBRII-ECD by the E-linker): EVQLVQSGAEVKKPGASVKVSCKASGYIFTGYGITWVRQAPGQGLEWMGEIFPRRVQTYYSEKFKGRVTMTTDTSTSTAYMELRSLRSDDTAVYYCARDYDPYFALDYWGQGTTVTVSSASTKGPSVFPLAPSSKSTSGGTAALGCLVKDYFPEPVTVSWNSGALTSGVHTFPAVLQSSGLYSLSSVVTVPSSSLGTQTYICNVNHKPSNTKVDKRV[gap - human IgG1 Fc]EPKSSDKTHTSPPSPIPPHVQKSVNNDMIVTDNNGAVKFPQLCKFCDVRFSTCDNQKSCMSNCSITSICEKPQEVCVAVWRKNDENITLETVCHDPKLPYHDFILEDAASPKCIMKEKKKPGETFFMCSCSSDECNDNIIFSEEYNTSNPD
light chain L0: DIQMTQSPSSLSASVGDRVTITCRASQDVSTAVDWYQQKPGKAPKLLIYSASYRYTGVPDRFSGSGSGTDFTFTISSLQPEDIATYYCQQHYSIPFTFGQGTKLEIKRTVAAPSVFIFPPSDEQLKSGTASVVCLLNNFYPREAKVQWKVDNALQSGNSQESVTEQDSKDSTYSLSSTLTLSKADYEKHKVYACEVTHQGLSSPVTKSFNRGEC
notes: anti-PD-L1 mAb / TGFβ receptor II ectodomain fusion protein, ectodomain on the heavy chain
EC50, luminescence (RLU) of PD-1 effector cells co-cultured with PD-L1 aAPC/CHO-K1 cells, PD-1/PD-L1 blockade bioassay: 0.635 nM

Further lines, results first:

EC50, luminescence (RLU) of PD-1 effector cells co-cultured with PD-L1 aAPC/CHO-K1 cells, PD-1/PD-L1 blockade bioassay: 0.611 nM
B2: ADD19-15-L03-E5 (other)
heavy: B1 heavy chain H1
light: DIQMTQSPSSLSASVGDRVTITCRASQDVSTAVDWYQQKPGKAPKLLIYSASYRYTGVPDRFSGSGSGTDFTFTISSLQPEDIATYYCQQHYSIPFTFGQGTKLEIKRTVAAPSVFIFPPSDEQLKSGTASVVCLLNNFYPREAKVQWKVDNALQSGNSQESVTEQDSKDSTYSLSSTLTLSKADYEKHKVYACEVTHQGLSSPVTKSFNRGECSPPSPIPPHVQKSVNNDMIVTDNNGAVKFPQLCKFCDVRFSTCDNQKSCMSNCSITSICEKPQEVCVAVWRKNDENITLETVCHDPKLPYHDFILEDAASPKCIMKEKKKPGETFFMCSCSSDECNDNIIFSEEYNTSNPD
notes: also called ADD19-15-03-E5

EC50, luminescence (RLU) of PD-1 effector cells co-cultured with PD-L1 aAPC/CHO-K1 cells, PD-1/PD-L1 blockade bioassay: 0.621 nM
B3: ADD19-15-L03-E4 (other)
heavy: B1 heavy chain H1
light: DIQMTQSPSSLSASVGDRVTITCRASQDVSTAVDWYQQKPGKAPKLLIYSASYRYTGVPDRFSGSGSGTDFTFTISSLQPEDIATYYCQQHYSIPFTFGQGTKLEIKRTVAAPSVFIFPPSDEQLKSGTASVVCLLNNFYPREAKVQWKVDNALQSGNSQESVTEQDSKDSTYSLSSTLTLSKADYEKHKVYACEVTHQGLSSPVTKSFNRGECSPPSIPPHVQKSVNNDMIVTDNNGAVKFPQLCKFCDVRFSTCDNQKSCMSNCSITSICEKPQEVCVAVWRKNDENITLETVCHDPKLPYHDFILEDAASPKCIMKEKKKPGETFFMCSCSSDECNDNIIFSEEYNTSNPD
notes: also called ADD19-15-03-E4
